The structures appear in SMILES notation. The list shows a part of the results.

Test [1] has as its system HSkMC (human skeletal muscle cells). In words: cytotoxicity call (relative viability < 0.9). The conditions noted are these: 10 µM.
In test [2] the test system is HepG2. In words: cytotoxicity call (relative viability < 0.9). Particulars: 10 µM.
The test system of test [3] is S. aureus RN4220. Kind of test: growth inhibition call (relative growth <= 0.2). The conditions noted are these: 50 µM.

Turning to `Cc1noc(C)c1NC(=O)N(C)C[C@H]1Oc2ccc(NC(=O)Nc3cccc4ccccc34)cc2C(=O)N([C@@H](C)CO)C[C@H]1C`, the cytotoxicity call in test [1] and in test [2] was “inactive” throughout. Moreover, the growth inhibition call in test [3] was “inactive”.

In the case of `COc1ccc(S(=O)(=O)N2C[C@@H](O)COC[C@H]3O[C@@H](CC(=O)N[C@H]4CCN(Cc5ccccc5)C4)CC[C@@H]32)cc1`, the cytotoxicity call in test [1] and in test [2] was “inactive” throughout. For the same compound, in test [3], the growth inhibition call is “inactive”.

On to `C[C@@H]1CN([C@H](C)CO)C(=O)c2cc(/C=C/c3ccccc3)cnc2O[C@@H]1CN(C)C(=O)Nc1ccc(C(F)(F)F)cc1`, for which the cytotoxicity call in test [1] was “inactive”. Further, in test [2], the cytotoxicity call was “active”. For the same compound, the growth inhibition call in test [3] is “inactive”.

Turning to `C[C@@H]1CCCCO[C@@H](CN(C)C(=O)CCC(F)(F)F)[C@@H](C)CN([C@H](C)CO)C(=O)c2cc(NS(=O)(=O)c3ccc(Cl)cc3)ccc2O1`, the cytotoxicity call in test [1] and in test [2] was “inactive” each time. Moreover, the growth inhibition call in test [3] was “inactive”.

With `CCN1[C@@H]2c3ccc(-c4ccncc4)c(=O)n3C[C@H]1[C@H](CO)[C@H]2C(=O)NCCc1cn(C)cn1`, the cytotoxicity call in test [1] and in test [2] was “inactive” in each case. For the same compound, in test [3], the growth inhibition call is “inactive”.

Turning to `O=C(Nc1ccc(S(=O)(=O)OCC(F)(F)C(F)(F)C(F)(F)C(F)F)cc1)NC1(C(F)(F)F)Oc2ccccc2O1`, the cytotoxicity call in test [1] and in test [2] was “inactive” throughout. Moreover, the growth inhibition call in test [3] was “active”.

Regarding `COc1ccc(CN(C)C[C@H]2Oc3c(NC(=O)CCCCCC(=O)Nc4ccccc4N)cccc3C(=O)N([C@@H](C)CO)C[C@@H]2C)cc1`, the cytotoxicity call in test [1] was “inactive”. Also, the cytotoxicity call in test [2] was “active”. In test [3], the growth inhibition call is “inactive”.

With `C[C@@H]1CN([C@H](C)CO)C(=O)c2cc(C#CCN(C)C)cnc2O[C@@H]1CN(C)C(=O)c1ccc2c(c1)OCO2`, the cytotoxicity call in test [1] and in test [2] was “inactive” in each case. In addition, the growth inhibition call in test [3] was “inactive”.

Take `C[C@@H]1CN([C@H](C)CO)C(=O)c2cc(NC(=O)Nc3ccc4c(c3)OCO4)ccc2O[C@@H](C)CCCCO[C@@H]1CN(C)C(=O)c1ccccc1`: the cytotoxicity call in test [1] and in test [2] was “inactive” throughout. In addition, the growth inhibition call in test [3] is “inactive”.

`CS(=O)(=O)CC(=O)N1C[C@@H]2CN(Cc3ccoc3)CCO[C@@H]2C1`: the cytotoxicity call in test [1] and in test [2] was “inactive” in each case. Moreover, the growth inhibition call in test [3] was “inactive”.

`CC(C)CC#Cc1cnc2c(c1)C(=O)N([C@H](C)CO)C[C@@H](C)[C@H](CN(C)S(=O)(=O)c1cccs1)O2`: the cytotoxicity call in test [1] and in test [2] was “inactive” each time. Further, the growth inhibition call in test [3] was “inactive”.

For the compound `Cc1noc(C)c1S(=O)(=O)Nc1ccc2c(c1)C(=O)N([C@@H](C)CO)C[C@@H](C)[C@H](CN(C)S(=O)(=O)c1cn(C)cn1)O2`, the cytotoxicity call in test [1] and in test [2] was “inactive” in each case. Besides, the growth inhibition call in test [3] is “inactive”.

Take `CCOC(=O)C(CCc1ccccc1)NC(C)C(=O)N1Cc2cc(OC)c(OC)cc2CC1C(=O)O.Cl` (configuration not stated): the cytotoxicity call in test [1] and in test [2] was “inactive” throughout. The growth inhibition call in test [3] is “inactive”.

Consider `CN(C)CCCNC(=O)C[C@@H]1C=C[C@@H](NS(=O)(=O)c2ccccc2)[C@@H](CO)O1`, for which the cytotoxicity call in test [1] and in test [2] was “inactive” in each case. Also, in test [3], the growth inhibition call was “inactive”.

For the compound `O=C(C[C@H]1CC[C@@H]2[C@H](COC[C@H](O)CN2C(=O)c2ccc(F)cc2)O1)NCCCN1CCOCC1`, the cytotoxicity call in test [1] and in test [2] was “inactive” throughout. Further, the growth inhibition call in test [3] was “inactive”.

Regarding `CC(C)CC#Cc1ccc2c(c1)O[C@@H](CN(C)S(=O)(=O)c1ccc(F)cc1)[C@H](C)CN([C@H](C)CO)S2(=O)=O`, the cytotoxicity call in test [1] and in test [2] was “inactive” throughout. Further, the growth inhibition call in test [3] was “inactive”.

With `C[C@H]1CN([C@@H](C)CO)C(=O)Cc2cc(NS(=O)(=O)c3cccs3)ccc2O[C@@H]1CN(C)S(C)(=O)=O`, the cytotoxicity call in test [1] and in test [2] was “inactive” each time. For the same compound, in test [3], the growth inhibition call was “inactive”.

As for `COCCOC(=O)N1C(=O)[C@@]2(c3cc(C#CCC(C(=O)OC)C(=O)OC)ccc31)[C@H](C(=O)NC[C@H](O)c1ccccc1)[C@H]1C(=O)O[C@H](c3ccccc3)[C@H](c3ccccc3)N1[C@@H]2c1ccc(OCCO)cc1`, the cytotoxicity call in test [1] and in test [2] was “inactive” each time. The growth inhibition call in test [3] is “inactive”.

As to `C[C@H]1CCCCO[C@H](CN(C)Cc2ccccc2)[C@@H](C)CN([C@@H](C)CO)C(=O)c2cc(NC(=O)Nc3ccc(F)cc3)ccc2O1`, the cytotoxicity call in test [1] was “inactive”. The cytotoxicity call in test [2] is “active”. In test [3], the growth inhibition call was “inactive”.

On to `Nc1ccn(C2CCC(CO)O2)c(=O)n1` (configuration not stated), for which the cytotoxicity call in test [1] and in test [2] was “inactive” each time. For the same compound, the growth inhibition call in test [3] is “inactive”.

For the compound `COc1cccc(NC(=O)N[C@@H]2CC[C@@H](CC(=O)N3CCOCC3)O[C@@H]2CO)c1`, the cytotoxicity call in test [1] and in test [2] was “inactive” in each case. The growth inhibition call in test [3] is “inactive”.

For `C=CCN1C(=O)[C@@]2(O[C@@H](CCO)[C@H]([Si](C)(C)c3ccc(OC)cc3)[C@H]2C)c2cc(NC(=O)[C@H](C)O)ccc21`, the cytotoxicity call in test [1] and in test [2] was “inactive” in each case. Further, the growth inhibition call in test [3] is “inactive”.

As to `Cc1noc(C)c1NC(=O)N(C)C[C@H]1Oc2ccc(NS(=O)(=O)c3c(C)noc3C)cc2CC(=O)N([C@H](C)CO)C[C@H]1C`, the cytotoxicity call in test [1] and in test [2] was “inactive” in each case. In test [3], the growth inhibition call is “inactive”.

For the compound `Cc1ccc(S(=O)(=O)Nc2ccc3c(c2)C(=O)N([C@H](C)CO)C[C@@H](C)[C@H](CN(C)C(=O)Nc2cccc4ccccc24)OCCCC[C@H](C)O3)cc1`, the cytotoxicity call in test [1] is “inactive”. In addition, in test [2], the cytotoxicity call was “active”. Moreover, the growth inhibition call in test [3] was “inactive”.
